Out of some 310,000 compounds screened, about 18,000 (5.8%) were called active. This list was built around the results that the source calls inconclusive (neither active nor inactive); the mix of calls is not that of the screen. The call rests on the fitted dose curve; in most records, active means well fitted inhibition curve with a large enough effect; inconclusive means small, poorly fitted or top-dose-only effect, or another doubt; inactive means no such curve, though single readings can be large or run the other way. No potency is given beside an inconclusive call; the fits are too rough.
assay: Primary qHTS for delayed death inhibitors of the malarial parasite plastid, 48 hour incubation; details: P. falciparum luciferase growth in erythrocytes; series mostly up to 28.7 µM; activity change, negative = inhibition: at the top concentration
In short: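 Luminescence readout; reporter = integrated firefly luciferase in P. falciparum. RBC culture at 2% hematocrit, 0.1% parasitemia final, 37 C/5% CO2; decreased signal taken as growth inhibition.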
On the % scale 0 is the no-effect control and ±100 the full control effect; potency means the concentration at half of the fitted maximal effect; tags describe the fitted curve by direction and shape.

SMILES | Potency | activity change, negative = inhibition
O=C(NC(=S)Nc1ccccc1N1CCOCC1)c1ccccc1F | inconclusive [inhibitor, single point] | 
CCCN1Cc2cccc(C(=O)Nc3ccc(S(=O)(=O)N4CCCCCC4)cc3)c2C1=O | inconclusive [inhibitor, full curve, poor fit] | 
CCCOc1ccc(C(=O)Nc2nc(C)c(Cc3ccc4c(c3)OCO4)s2)cc1 | active: 10.4 µM | 
CC(C)C(c1nnnn1Cc1ccccc1)N(CCCO)Cc1cc2cc3c(cc2[nH]c1=O)OCO3 (stereo unspecified) | active: 7.38 µM | 
Cc1c(C(=O)CN2CCCC(C)(C)C2)c2ccccc2n1C |  | inactive: -19.3%
CSc1cccc(NC(=O)Nc2nc3c(C)cccc3s2)c1 | inconclusive [inhibitor, single point] | 
COc1cc(SC)ccc1C(=O)NCCOc1ccc(C)c(C)c1 |  | inactive: -23.2%
C/C(=N\NC(=O)c1c(Br)c(C)nn1C)c1cccc(NC(=O)c2ccccc2F)c1 |  | inactive: 21.8%
O=C(OCc1ccc(Br)cc1)c1cnc(Cl)c(Cl)c1 | inconclusive [inhibitor, single point] | 
CC1CCC(NC(=O)Cn2cnc3sccc3c2=O)CC1 (stereo unspecified) |  | inactive: 29.7%
NC(=S)Nc1cccc2[nH]ccc12 |  | inactive: 48.3%
O=S(=O)(NCC(Nc1ccc(Cl)cc1)c1ccccc1)c1ccccc1 (stereo unspecified) | inconclusive [inhibitor, single point] | 
O=C(N1CCCCC1)N1CCN(C(=O)N(c2ccccc2)c2ccccc2)CC1 |  | inactive: -8.74%
COc1cc(NC(=O)Nc2ccccc2)c(OC)cc1NC(=O)CN1CCCCC1 | inconclusive [inhibitor, partial curve] | 
CC(C)Cn1c(-c2cc([N+](=O)[O-])ccc2Cl)nc2c1c(=O)[nH]c(=O)n2Cc1ccccc1 | active: 5.22 µM | 
COc1cc(/C=N/NC(=O)c2cc(-c3ccccc3)sc2N)cc(OC)c1OC | inconclusive [inhibitor, single point] | 
COC(=O)c1c(-c2ccccc2)csc1NC(=O)CSc1ncnc2sc(C)c(C)c12 | inconclusive [inhibitor, partial curve, poor fit] | 
COC(=O)c1cccc(-n2cnnn2)c1 |  | inactive: 8.16%
COc1ccc(C(=O)NC2CCCCC2)cc1S(=O)(=O)N1CCCC1 | inconclusive [inhibitor, partial curve, poor fit] | 
COc1ccccc1NC(=O)C(C)OC(=O)CCNS(=O)(=O)c1cccc(C(F)(F)F)c1 (stereo unspecified) | inconclusive [inhibitor, partial curve] | 
CCOC(=O)C1CCN(C(=O)CN(c2ccc(OC)c(OC)c2)S(=O)(=O)c2ccccc2)CC1 | inconclusive [inhibitor, partial curve, poor fit] | 
